Test in all cases: glycan array binding signal (z-score within array); higher = stronger binding
Common to all, as to conditions: glycan notation: IUPAC condensed, linker removed

Assay [1] has as its target Neu5Ac9Ac(a2-3)Gal(b1-4)GlcNAc. The essentials:
(§1)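 The Consortium for Functional Glycomics database supplied 3228 glycan arrays, of which those lacking an available protein sequence were dropped. The binding signal, a within-array Z-score, was averaged across arrays of the same protein sequence and across linkers. Negative scores can be read as non-binding.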

The target in assay [2] is Neu5Ac9Ac(a2-6)Gal(b1-4)GlcNAc. An outline of the steps: as §1
Assay [3] has as its target Neu5Gc(a2-3)Gal(b1-3)GlcNAc. The essentials:
as §1

Assay [4] concerns the target Neu5Gc(a2-3)Gal(b1-3)[Fuc(a1-4)]GlcNAc. The essentials:
as §1

For the next assay, the target named is Neu5Gc(a2-3)Gal(b1-4)Glc. The essentials:
as §1

For assay [5], the target named is Neu5Gc(a2-3)Gal(b1-4)GlcNAc. The essentials: as §1
Assay [6] has as its target Neu5Gc(a2-3)Gal(b1-4)[Fuc(a1-3)]GlcNAc. An outline of the steps:
as §1

For assay [7], the target named is Neu5Gc(a2-6)Gal(b1-4)GlcNAc. An outline of the steps: as §1
Another assay concerns the target Neu5Gc(a2-6)GalNAc. An outline of the steps: as §1
The target of assay [8] is Neu5Gc(b2-6)Gal(b1-4)GlcNAc. The essentials: as §1

The list shows a part of the results.

B1: SefD (Salmonella enterica), Q9L6K6 (protein)
chain: GAYIIRGQNNSAHKLRIRIGGEDWQPDNSGIGMVSHSDFTNEFNIYYFGNGDIPVDTYLISIYATEIEL
Regarding B1, the “glycan array binding signal (z-score)” value in [1] is -0.352; in [2], -0.295; in assay [3] it was 0.217; in [4], -0.378; in the assay with Neu5Gc(a2-3)Gal(b1-4)Glc, -0.187; in [5], -0.51. For the same molecule, the “glycan array binding signal (z-score)” value in [6] is -0.358; in [7] it was 0.422; with Neu5Gc(a2-6)GalNAc, -0.478; in [8], -0.326.
